Results as given in the supplement of paper PMC10126150.
Sequences with one replicate were seen in a single cluster, so their values are uncertain.

test system: ATP; assay: switch fluorescence ratio, 500 uM ATP over buffer (Cy3 cluster intensity, sum of 5 cycles each) (fold (ratio)); higher = stronger signal-on switching upon ATP binding; sequences stand for … in TCGTCGGCAGCGTCAGATGTGTATAAGAGACAGTTTTTTTTTTTTTTTTTTTTTTTTT…TC; settings: aptamer strand: ATP DNA aptamer (quencher-CACCTGGGGGAGTATTGCGGAGGAAGG + anchor), 100 nM annealed; ATP concentration: 500 uM; one replicate
Outline: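 Imaging in selection buffer was followed by imaging after 15 min with 500 uM ATP at 22 °C, for Cy3-labelled switching-strand clusters annealed to 100 nM quencher-labelled ATP aptamer on a modified Illumina MiSeq flow-cell. Five of these buffer/ATP cycles ran, separated by NaOH stripping and re-annealing. The fluorescence ratio per cluster is summed target-cycle over summed buffer-cycle Cy3 intensity, averaged per switch-domain sequence; clusters outside 100-1000 RFU were removed.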
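Note: ATP exposure 15 min at 22 °C before imaging.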

Row | Sequence | switch fluorescence ratio
1 | AGGTTGCAGG | 1.05
2 | AGGTTGGTCA | 0.986
3 | AGGTTTTCTT | 0.972
4 | AGTAAAAACG | 0.977
5 | AGTAACCCGA | 1.07
6 | AGTAACGTGT | 1.04
7 | AGTAACGTT | 0.972
8 | AGTAAGCCTG | 1.16
9 | AGTAAGCTTG | 0.986
10 | AGTAAGGGAA | 1.01
11 | AGTAAGGTC | 0.974
12 | AGTAAGTAG | 1.02
13 | AGTAAGTGTC | 1.21
14 | AGTAATCTTT | 0.968
15 | AGTAATGGAT | 0.972
16 | AGTAATTAA | 0.971
17 | AGTACATTCC | 1.9
18 | AGTACATTTA | 1.01
19 | AGTACCAAGT | 1
20 | AGTACTCGTG | 1
21 | AGTAGATAAC | 1.01
22 | AGTAGCTCAG | 1.02
23 | AGTAGGTGAA | 1.05
24 | AGTAGGTTAA | 0.996
25 | AGTATAAGAT | 0.966
26 | AGTATAGA | 0.961

Row | Sequence | switch fluorescence ratio
27 | AGTATAGGTT | 1.02
28 | AGTATATCGA | 1
29 | AGTATCTAGG | 1.01
30 | AGTATGAACT | 1.04
31 | AGTATGAAGA | 0.999
32 | AGTATGATTA | 0.977
33 | AGTATGGTCG | 0.925
34 | AGTATGTTAC | 1
35 | AGTATTATGG | 0.956
36 | AGTATTCAAG | 0.961
37 | AGTATTCGTG | 1.03
38 | AGTCAACCT | 1.69
39 | AGTCACACTT | 1.02
40 | AGTCACGGTC | 1.01
41 | AGTCAGTGCC | 1.04
42 | AGTCATACTT | 1.02
43 | AGTCATATTG | 0.99
44 | AGTCATGGG | 0.986
45 | AGTCCAGGGT | 1.14
46 | AGTCCGTGGG | 1.01
47 | AGTCCGTTTT | 1
48 | AGTCCTGTGG | 1
49 | AGTCGAGCGG | 0.992
50 | AGTCGATACC | 1.11
51 | AGTCGATAGT | 1.05
52 | AGTCGCACAC | 1.48

Row | Sequence | switch fluorescence ratio
53 | AGTCGTAGAA | 1.03
54 | AGTCGTCGCC | 1.01
55 | AGTCGTGCG | 0.987
56 | AGTCGTTGTT | 1
57 | AGTCGTTTTC | 1.04
58 | AGTCTAGACC | 1.01
59 | AGTCTCGCAT | 1.17
60 | AGTCTGTCGG | 0.992
61 | AGTCTTAGTT | 0.965
62 | AGTGAAATCA | 0.989
63 | AGTGAACAGT | 0.97
64 | AGTGAAGAC | 1.13
65 | AGTGAAGTGT | 1
66 | AGTGAGACTC | 1.13
67 | AGTGAGAGAA | 1
68 | AGTGATTCGG | 0.971
69 | AGTGCAACCA | 0.988
70 | AGTGCCCCT | 1.01
71 | AGTGCCGCTC | 1.02
72 | AGTGCGGATC | 1.01
73 | AGTGCTGGTT | 0.971
74 | AGTGCTGTCA | 0.976
75 | AGTGGAATAC | 2.55
76 | AGTGGAGCAA | 2.05
77 | AGTGGCACAT | 1.04
78 | AGTGGCCTC | 1

Row | Sequence | switch fluorescence ratio
79 | AGTGGGAAC | 1.01
80 | AGTGGGAGCT | 0.971
81 | AGTGGGAGGC | 1.05
82 | AGTGGGCATG | 1.02
83 | AGTGGGGGCC | 0.975
84 | AGTGGGTGTG | 1.08
85 | AGTGGTTGGG | 1
86 | AGTGTAGGAG | 1.02
87 | AGTGTCGGCT | 1.03
88 | AGTGTGAATC | 1.05
89 | AGTGTGGGCC | 1.07
90 | AGTGTTAAAA | 0.997
91 | AGTGTTACGA | 0.997
92 | AGTGTTATGG | 0.987
93 | AGTGTTCAAG | 0.97
94 | AGTGTTCTT | 0.96
95 | AGTGTTGTTA | 1.02
96 | AGTGTTTAC | 0.968
97 | AGTTAACTCC | 1.09
98 | AGTTACGGCG | 1.03
99 | AGTTAGGGT | 1.02
100 | AGTTAGTACC | 0.975
101 | AGTTAGTCCC | 0.981
102 | AGTTATAATG | 0.982
103 | AGTTATCTTC | 0.994
104 | AGTTATTCAC | 1.06

Row | Sequence | switch fluorescence ratio
105 | AGTTATTTT | 0.982
106 | AGTTCAAGGG | 1.06
107 | AGTTCGCCGT | 1.07
108 | AGTTCGCGTA | 1.05
109 | AGTTCTAGAG | 1.01
110 | AGTTCTGTTA | 1.01
111 | AGTTCTTCCA | 1.01
112 | AGTTCTTGTG | 0.962
113 | AGTTGACAAC | 0.937
114 | AGTTGAGATC | 0.938
115 | AGTTGCAAGA | 1.05
116 | AGTTGGACAC | 1.06
117 | AGTTGGCAGA | 1
118 | AGTTGGTCCA | 1.01
119 | AGTTGGTCCG | 1.02
120 | AGTTGGTCGA | 1.03
121 | AGTTGTGGGA | 1.04
122 | AGTTGTTACG | 0.981
123 | AGTTGTTCCC | 1.04
124 | AGTTTACCAT | 1.01
125 | AGTTTACGG | 1.01
126 | AGTTTCTGTC | 1.06
127 | AGTTTGAA | 1.03
128 | AGTTTGAGAG | 1.02
129 | AGTTTGTATG | 1.01
130 | AGTTTTAAAG | 1.04

Row | Sequence | switch fluorescence ratio
131 | AGTTTTAATG | 0.985
132 | AGTTTTATAG | 1.02
133 | AGTTTTCGGG | 0.954
134 | AGTTTTCTTG | 1.01
135 | AGTTTTGCGG | 0.942
136 | ATAAAATACC | 0.983
137 | ATAAACTTCT | 1.09
138 | ATAAAGCGAA | 1.02
139 | ATAAAGCTCG | 1.02
140 | ATAAAGTAAT | 1.02
141 | ATAAATCCCG | 0.999
142 | ATAACAGCAG | 0.988
143 | ATAACAGCGT | 0.998
144 | ATAACCGGTG | 1.07
145 | ATAACGACAA | 1.23
146 | ATAACGGGCG | 1.05
147 | ATAACTCATT | 1.04
148 | ATAACTTCCT | 1.45
149 | ATAAGAAAGT | 0.98
150 | ATAAGACGCT | 1.07
151 | ATAAGATCTT | 0.996
152 | ATAAGATGGT | 1.07
153 | ATAAGGGTAC | 1.03
154 | ATAAGGTGCT | 1.23
155 | ATAAGTAGAG | 1.01
156 | ATAAGTCAGT | 0.96

Row | Sequence | switch fluorescence ratio
157 | ATAAGTGGGT | 1.04
158 | ATAAGTTCAG | 1
159 | ATAAGTTGAA | 0.963
160 | ATAATAGGAC | 1.04
161 | ATAATATTCT | 1.03
162 | ATAATCAATT | 1.02
163 | ATAATCTTGC | 1.25
164 | ATAATTACGC | 1.03
165 | ATAATTAGGT | 1.03
166 | ATACAAGAGT | 1
167 | ATACAAGCTC | 1.06
168 | ATACACAGAC | 1.27
169 | ATACACGGCT | 1.01
170 | ATACACGGTT | 1.04
171 | ATACAGAGGC | 1.02
172 | ATACAGTACC | 1.5
173 | ATACATTTTG | 1
174 | ATACCAAGCG | 0.974
175 | ATACCGCCTG | 1.05
176 | ATACCGGTAG | 1.03
177 | ATACCGGTGA | 1.03
178 | ATACCTGCGC | 1.42
179 | ATACCTGTGC | 1.22
180 | ATACGAAAAA | 1.33
181 | ATACGAAGCC | 1.16
182 | ATACGATCGT | 0.979

Row | Sequence | switch fluorescence ratio
183 | ATACGATGCC | 1.09
184 | ATACGATGGT | 1.04
185 | ATACGATGTG | 1.02
186 | ATACGCGAC | 1.84
187 | ATACGCTGTG | 1.03
188 | ATACGGGGGC | 0.983
189 | ATACGTATTT | 1.15
190 | ATACGTTGGG | 0.976
191 | ATACTAAATG | 1.04
192 | ATACTATGCC | 0.946
193 | ATACTATGCG | 0.935
194 | ATACTATGCT | 0.994
195 | ATACTGAGG | 0.952
196 | ATACTGGTCC | 1.04
197 | ATACTTGGGG | 1.02
198 | ATACTTGGTT | 0.993
199 | ATAGAAAAGC | 0.951
200 | ATAGAAACGA | 0.99
201 | ATAGATACTT | 0.979
